# Patent US8852883B2 (priority 2008, dated 2014)
# Tested on: B. globigii cells
# Assay type: cell-based
# Conditions: B. globigii cultured in presence of BikKam1
substance,measurement,value
FITC-Ahx-Leu-DLeu-Lys-DABCYL [BikKam1],Fluorescent bacteria (fluorescence microscopy),did not lead to fluorescent bacteria
